Assay results published in the supplement of paper PMC8728848.
Some of the results follow.

Legend:
Assay in all cases: glycan array binding signal (z-score within array); higher = stronger binding
Details in all cases: glycan notation: IUPAC condensed, linker removed
[1] = molecular target: Gal(b1-4)GlcNAc(b1-3)Gal(b1-4)GlcNAc(b1-2)[Gal(b1-4)GlcNAc(b1-3)Gal(b1-4)GlcNAc(b1-6)]Man(a1-6)[Gal(b1-4)GlcNAc(b1-3)Gal(b1-4)GlcNAc(b1-2)Man(a1-3)]Man(b1-4)GlcNAc(b1-4)GlcNAc
How it was run: (§1)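 Negative Z-scores can be read as non-binding. The Z-score is calculated within each array and then averaged across arrays of one protein sequence at different concentrations or buffers and across linkers. Arrays, 3228 in all, were curated from the Consortium for Functional Glycomics database and kept only where the protein sequence was available.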

[2] = molecular target: Gal(b1-4)GlcNAc(b1-3)Gal(b1-4)GlcNAc(b1-2)[Gal(b1-4)GlcNAc(b1-3)Gal(b1-4)GlcNAc(b1-6)]Man(a1-6)[Gal(b1-4)GlcNAc(b1-3)Gal(b1-4)GlcNAc(b1-2)Man(a1-3)]Man(b1-4)GlcNAc(b1-4)[Fuc(a1-6)]GlcNAc
How it was run: as §1

[3] = molecular target: Gal(b1-4)GlcNAc(b1-3)Gal(b1-4)GlcNAc(b1-3)Gal(b1-4)GlcNAc
How it was run: as §1

[4] = molecular target: Gal(b1-4)GlcNAc(b1-3)Gal(b1-4)GlcNAc(b1-3)Gal(b1-4)GlcNAc(b1-2)Man(a1-3)[Gal(b1-4)GlcNAc(b1-3)Gal(b1-4)GlcNAc(b1-3)Gal(b1-4)GlcNAc(b1-2)Man(a1-6)]Man(b1-4)GlcNAc(b1-4)GlcNAc
How it was run: as §1

[5] = molecular target: Gal(b1-4)GlcNAc(b1-3)Gal(b1-4)GlcNAc(b1-3)Gal(b1-4)GlcNAc(b1-2)Man(a1-3)[Gal(b1-4)GlcNAc(b1-3)Gal(b1-4)GlcNAc(b1-3)Gal(b1-4)GlcNAc(b1-2)Man(a1-6)]Man(b1-4)GlcNAc(b1-4)[Fuc(a1-6)]GlcNAc
How it was run: as §1

[6] = molecular target: Gal(b1-4)GlcNAc(b1-3)Gal(b1-4)GlcNAc(b1-3)Gal(b1-4)GlcNAc(b1-2)[Gal(b1-4)GlcNAc(b1-3)Gal(b1-4)GlcNAc(b1-3)Gal(b1-4)GlcNAc(b1-6)]Man(a1-6)[Gal(b1-4)GlcNAc(b1-3)Gal(b1-4)GlcNAc(b1-3)Gal(b1-4)GlcNAc(b1-2)Man(a1-3)]Man(b1-4)GlcNAc(b1-4)[Fuc(a1-6)]GlcNAc
How it was run: as §1

[7] = molecular target: Gal(b1-4)GlcNAc(b1-3)Gal(b1-4)GlcNAc(b1-3)Gal(b1-4)GlcNAc(b1-3)Gal(b1-4)GlcNAc(b1-2)Man(a1-3)[Gal(b1-4)GlcNAc(b1-3)Gal(b1-4)GlcNAc(b1-3)Gal(b1-4)GlcNAc(b1-3)Gal(b1-4)GlcNAc(b1-2)Man(a1-6)]Man(b1-4)GlcNAc(b1-4)GlcNAc
How it was run: as §1

[8] = molecular target: Gal(b1-4)GlcNAc(b1-3)Gal(b1-4)GlcNAc(b1-3)Gal(b1-4)GlcNAc(b1-3)Gal(b1-4)GlcNAc(b1-2)Man(a1-3)[Gal(b1-4)GlcNAc(b1-3)Gal(b1-4)GlcNAc(b1-3)Gal(b1-4)GlcNAc(b1-3)Gal(b1-4)GlcNAc(b1-2)Man(a1-6)]Man(b1-4)GlcNAc(b1-4)[Fuc(a1-6)]GlcNAc
How it was run: as §1

[9] = molecular target: Gal(b1-4)GlcNAc(b1-3)Gal(b1-4)GlcNAc(b1-3)Gal(b1-4)GlcNAc(b1-3)Gal(b1-4)GlcNAc(b1-2)[Gal(b1-4)GlcNAc(b1-3)Gal(b1-4)GlcNAc(b1-3)Gal(b1-4)GlcNAc(b1-3)Gal(b1-4)GlcNAc(b1-6)]Man(a1-6)[Gal(b1-4)GlcNAc(b1-3)Gal(b1-4)GlcNAc(b1-3)Gal(b1-4)GlcNAc(b1-3)Gal(b1-4)GlcNAc(b1-2)Man(a1-3)]Man(b1-4)GlcNAc(b1-4)[Fuc(a1-6)]GlcNAc
How it was run: as §1

[10] = molecular target: Gal(b1-4)GlcNAc(b1-3)Gal(b1-4)GlcNAc(b1-3)Gal(b1-4)GlcNAc(b1-3)Gal(b1-4)GlcNAc(b1-3)Gal(b1-4)GlcNAc(b1-2)Man(a1-3)[Gal(b1-4)GlcNAc(b1-3)Gal(b1-4)GlcNAc(b1-3)Gal(b1-4)GlcNAc(b1-3)Gal(b1-4)GlcNAc(b1-3)Gal(b1-4)GlcNAc(b1-2)Man(a1-6)]Man(b1-4)GlcNAc(b1-4)GlcNAc
How it was run: as §1

[11] = molecular target: Gal(b1-4)GlcNAc(b1-3)Gal(b1-4)GlcNAc(b1-3)Gal(b1-4)GlcNAc(b1-3)Gal(b1-4)GlcNAc(b1-3)Gal(b1-4)GlcNAc(b1-2)Man(a1-3)[Gal(b1-4)GlcNAc(b1-3)Gal(b1-4)GlcNAc(b1-3)Gal(b1-4)GlcNAc(b1-3)Gal(b1-4)GlcNAc(b1-3)Gal(b1-4)GlcNAc(b1-2)Man(a1-6)]Man(b1-4)GlcNAc(b1-4)[Fuc(a1-6)]GlcNAc
How it was run: as §1

[12] = molecular target: Gal(b1-4)GlcNAc(b1-3)Gal(b1-4)GlcNAc(b1-3)Gal(b1-4)GlcNAc(b1-3)Gal(b1-4)GlcNAc(b1-3)Gal(b1-4)GlcNAc(b1-2)[Gal(b1-4)GlcNAc(b1-3)Gal(b1-4)GlcNAc(b1-3)Gal(b1-4)GlcNAc(b1-3)Gal(b1-4)GlcNAc(b1-3)Gal(b1-4)GlcNAc(b1-6)]Man(a1-6)[Gal(b1-4)GlcNAc(b1-3)Gal(b1-4)GlcNAc(b1-3)Gal(b1-4)GlcNAc(b1-3)Gal(b1-4)GlcNAc(b1-3)Gal(b1-4)GlcNAc(b1-2)Man(a1-3)]Man(b1-4)GlcNAc(b1-4)[Fuc(a1-6)]GlcNAc
How it was run: as §1

[13] = molecular target: Gal(b1-4)GlcNAc(b1-3)Gal(b1-4)GlcNAc(b1-3)Gal(b1-4)GlcNAc(b1-3)Gal(b1-4)GlcNAc(b1-3)Gal(b1-4)GlcNAc(b1-3)Gal(b1-4)GlcNAc(b1-2)Man(a1-3)[Gal(b1-4)GlcNAc(b1-3)Gal(b1-4)GlcNAc(b1-3)Gal(b1-4)GlcNAc(b1-3)Gal(b1-4)GlcNAc(b1-3)Gal(b1-4)GlcNAc(b1-3)Gal(b1-4)GlcNAc(b1-2)Man(a1-6)]Man(b1-4)GlcNAc(b1-4)GlcNAc
How it was run: as §1

[14] = molecular target: Gal(b1-4)GlcNAc(b1-3)Gal(b1-4)GlcNAc(b1-3)GalNAc
How it was run: as §1

[15] = molecular target: Gal(b1-4)GlcNAc(b1-3)Gal(b1-4)GlcNAc(b1-3)[Gal(b1-4)GlcNAc(b1-3)Gal(b1-4)GlcNAc(b1-6)]GalNAc
How it was run: as §1

[16] = molecular target: Gal(b1-4)GlcNAc(b1-3)Gal(b1-4)GlcNAc(b1-6)[Gal(b1-3)]GalNAc
How it was run: as §1

[17] = molecular target: Gal(b1-4)GlcNAc(b1-3)Gal(b1-4)[Fuc(a1-3)]GlcNAc(b1-3)Gal(b1-4)[Fuc(a1-3)]GlcNAc
How it was run: as §1

[18] = molecular target: Gal(b1-4)GlcNAc(b1-3)GalNAc
How it was run: as §1

[19] = molecular target: Gal(b1-4)GlcNAc(b1-3)[Fuc(a1-3)GlcNAc(b1-6)]Gal(b1-4)Glc
How it was run: as §1

[20] = molecular target: Gal(b1-4)GlcNAc(b1-3)[Gal(b1-4)GlcNAc(b1-6)]Gal(b1-4)GlcNAc
How it was run: as §1

[21] = molecular target: Gal(b1-4)GlcNAc(b1-3)[GlcNAc(b1-6)]Gal(b1-4)GlcNAc
How it was run: as §1

[22] = molecular target: Gal(b1-4)GlcNAc(b1-6)Gal(b1-4)GlcNAc
How it was run: as §1

[23] = molecular target: Gal(b1-4)GlcNAc(b1-6)GalNAc
How it was run: as §1

[24] = molecular target: Gal(b1-4)GlcNAc(b1-6)[Gal(b1-3)]GalNAc
How it was run: as §1

[25] = molecular target: Gal(b1-4)GlcNAc(b1-6)[Gal(b1-4)GlcNAc(b1-3)]GalNAc
How it was run: as §1

[26] = molecular target: Gal(b1-4)GlcNAc6P
How it was run: as §1

[27] = molecular target: Gal(b1-6)Gal
How it was run: as §1

[28] = molecular target: Gal3S(b1-3)GalNAc
How it was run: as §1

[29] = molecular target: Gal3S(b1-3)GlcNAc
How it was run: as §1

[30] = molecular target: Gal3S(b1-3)[Fuc(a1-4)]GlcNAc
How it was run: as §1

[31] = molecular target: Gal3S(b1-4)Glc
How it was run: as §1

[32] = molecular target: Gal3S(b1-4)Glc6S
How it was run: as §1

[33] = molecular target: Gal3S(b1-4)GlcNAc
How it was run: as §1

[34] = molecular target: Gal3S(b1-4)[Fuc(a1-3)]Glc6S
How it was run: as §1

[35] = molecular target: Gal3S(b1-4)[Fuc(a1-3)]GlcNAc
How it was run: as §1

[36] = molecular target: Gal3S(b1-4)[Fuc(a1-3)]GlcNAc6S
How it was run: as §1

[37] = molecular target: Gal3S4S(b1-4)GlcNAc
How it was run: as §1

[38] = molecular target: Gal3S6S(b1-4)GlcNAc
How it was run: as §1

[39] = molecular target: Gal3S6S(b1-4)GlcNAc6S
How it was run: as §1

[40] = molecular target: Gal4S(b1-4)GlcNAc
How it was run: as §1

[41] = molecular target: Gal4S6S(b1-4)GlcNAc
How it was run: as §1

[42] = molecular target: Gal6P(b1-4)GlcNAc
How it was run: as §1

[43] = molecular target: Gal6S(b1-3)GlcNAc
How it was run: as §1

[44] = molecular target: Gal6S(b1-3)GlcNAc6S
How it was run: as §1

[45] = molecular target: Gal6S(b1-4)Glc
How it was run: as §1

B1: LecB PA14 (Pseudomonas aeruginosa) (protein)
chain: MATQGVFTLPANTQFGVTAFANSAGTQTVNVQVNNETVATFTGQSTNNAIIGSKVLNSGGGGKVQILVSVNGRSSDLVSAQVILANELNFALVGSEDSTDNDYNDAVVVINWPLG
glycan array binding signal (z-score) [1]: -0.236
glycan array binding signal (z-score) [2]: 0.576
glycan array binding signal (z-score) [3]: -0.48
glycan array binding signal (z-score) [4]: -0.378
glycan array binding signal (z-score) [5]: 1.02
glycan array binding signal (z-score) [6]: 0.253
glycan array binding signal (z-score) [7]: -0.03
glycan array binding signal (z-score) [8]: 0.621
glycan array binding signal (z-score) [9]: 0.632
glycan array binding signal (z-score) [10]: 0.285
glycan array binding signal (z-score) [11]: 0.294
glycan array binding signal (z-score) [12]: -0.587
glycan array binding signal (z-score) [13]: -0.092
glycan array binding signal (z-score) [14]: 0.121
glycan array binding signal (z-score) [15]: -0.666
glycan array binding signal (z-score) [16]: -0.175
glycan array binding signal (z-score) [17]: 0.462
glycan array binding signal (z-score) [18]: -0.33
glycan array binding signal (z-score) [19]: 0.632
glycan array binding signal (z-score) [20]: 0.444
glycan array binding signal (z-score) [21]: -0.32
glycan array binding signal (z-score) [22]: 0.059
glycan array binding signal (z-score) [23]: -0.665
glycan array binding signal (z-score) [24]: -0.065
glycan array binding signal (z-score) [25]: -0.32
glycan array binding signal (z-score) [26]: -0.014
glycan array binding signal (z-score) [27]: -0.776
glycan array binding signal (z-score) [28]: 0.962
glycan array binding signal (z-score) [29]: -0.675
glycan array binding signal (z-score) [30]: 2.03
glycan array binding signal (z-score) [31]: -0.45
glycan array binding signal (z-score) [32]: -0.564
glycan array binding signal (z-score) [33]: -0.68
glycan array binding signal (z-score) [34]: 0.186
glycan array binding signal (z-score) [35]: 0.8
glycan array binding signal (z-score) [36]: 0.33
glycan array binding signal (z-score) [37]: -0.603
glycan array binding signal (z-score) [38]: -0.745
glycan array binding signal (z-score) [39]: -0.65
glycan array binding signal (z-score) [40]: -0.214
glycan array binding signal (z-score) [41]: -0.457
glycan array binding signal (z-score) [42]: -0.707
glycan array binding signal (z-score) [43]: -0.543
glycan array binding signal (z-score) [44]: -0.296
glycan array binding signal (z-score) [45]: -0.626
